The results in this text go back to a collection of fitness landscapes (doi:10.1038/s41467-024-54723-y).

The full ranking holds about 18,000 sequences; the median of “TetR repression strength (sort-seq, GFP reporter)” is about 0.23, and the highest 2% start at about 0.68. The list shows a part of the results.

This experiment deals with TetR (class B, Tn10) (UniProt P04483). The experiment in a line: TetR repression strength (sort-seq, GFP reporter) (relative to tetO2 = 1); higher = stronger repression. Particulars: E. coli. The method, boiled down: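 Three independent transformations of E. coli SIG10-MAX were made with a low-copy plasmid library randomizing eight operator positions between a constitutive promoter and sfGFP, with constitutive TetR. Following 5 h at 37 °C in LB plus 50 µg/mL chloramphenicol, 10^6 cells went through FACS into 13 fluorescence bins, and each bin was sequenced by Illumina. Repression strength was defined as the top bin index plus one minus the read-weighted mean bin, divided by the unaltered operator's value. Averages included only members reaching ≥30 reads in all replicates with a CV ≤0.5.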
Sequence of UniProt P04483 (P04483 whole entry): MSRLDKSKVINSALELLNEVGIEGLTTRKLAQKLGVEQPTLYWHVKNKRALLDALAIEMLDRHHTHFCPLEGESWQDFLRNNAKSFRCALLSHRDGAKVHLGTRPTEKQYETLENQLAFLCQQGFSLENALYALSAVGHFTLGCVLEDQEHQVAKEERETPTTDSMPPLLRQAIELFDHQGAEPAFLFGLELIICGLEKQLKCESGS
TCCCTATGAGTCCAAGAGA displayed a TetR repression strength of 0.267.
Under TCCCTTATAGTCAGTGAGA stands 0.452.
Sequence TCCCGGACAGTTCTTGAGA yielded a TetR repression strength of 0.298.
On to TCCCAAGAAGTTAGGGAGA, for which the TetR repression strength came out at 0.207.
Under TCCCTCGTAGTATTAGAGA stands 0.233.
Under TCCCAAAGAGTGTGTGAGA stands 0.123.
The same measure for TCCCGGGTAGTGAGAGAGA: 0.179; for TCCCGTGCAGTGGGTGAGA: 0.148; for TCCCGTCCAGTTCTAGAGA: 0.276.
TCCCTTACAGTTCCAGAGA showed a TetR repression strength of 0.363.
Under TCCCTCGGAGTGGGCGAGA stands 0.119.
Under TCCCGATTAGTGGACGAGA stands 0.237.
Take TCCCGGAGAGTTTCTGAGA: the TetR repression strength amounted to 0.191.
The same measure for TCCCTACGAGTCTCAGAGA: 0.197; for TCCCTCCTAGTGAACGAGA: 0.24; for TCCCGGCTAGTGTAGGAGA: 0.405.
Under TCCCGTGCAGTGCGGGAGA stands 0.291; under TCCCTTACAGTCAGGGAGA, 0.207.
TCCCGACGAGTTGGGGAGA registered a TetR repression strength of 0.139.
The same measure for TCCCGCTGAGTCAAGGAGA: 0.279; for TCCCGGGCAGTAAAGGAGA: 0.248.
Under TCCCATCCAGTGAATGAGA stands 0.353.
TCCCGGTTAGTATCTGAGA registered a TetR repression strength of 0.284.
The same measure for TCCCATGTAGTGACTGAGA: 0.242.
The same measure for TCCCGCGAAGTCGCAGAGA: 0.131; for TCCCATTCAGTACAGGAGA: 0.47; for TCCCCGAAAGTAGGGGAGA: 0.244.
With TCCCTCCCAGTTATCGAGA, the TetR repression strength was found to be 0.34.
With TCCCGGTGAGTACTAGAGA, the TetR repression strength turned out to be 0.343.
Consider TCCCAGGTAGTCGAGGAGA, for which the TetR repression strength turned out to be 0.464.
Under TCCCTGGTAGTGTTAGAGA stands 0.216; under TCCCTTTTAGTCCCGGAGA, 0.311; under TCCCCATCAGTACCTGAGA, 0.548.
The same measure for TCCCTGAGAGTGCGTGAGA: 0.232.
For the sequence TCCCGGTGAGTTGTGGAGA, the TetR repression strength worked out at 0.222.
Under TCCCGGCGAGTGGGCGAGA stands 0.158; under TCCCTAATAGTTATTGAGA, 0.372; under TCCCCTACAGTAACCGAGA, 0.518.
Under TCCCATCAAGTACCGGAGA stands 0.151.
The same measure for TCCCTTCAAGTCGGGGAGA: 0.207; for TCCCGATCAGTCATCGAGA: 0.477; for TCCCAGTAAGTATACGAGA: 0.308.
Turning to TCCCTTTTAGTTCTGGAGA, the TetR repression strength was 0.207.
TCCCTCGGAGTGTAGGAGA: the TetR repression strength amounted to 0.113.
In the case of TCCCGTGGAGTGCGTGAGA, the TetR repression strength came to 0.264.
Under TCCCGACGAGTAGTTGAGA stands 0.3; under TCCCTTCGAGTAAGAGAGA, 0; under TCCCATGGAGTAACAGAGA, 0.233.
The same measure for TCCCCTTCAGTCCTCGAGA: 0.421; for TCCCATGTAGTTGGCGAGA: 0.217; for TCCCGGGCAGTTTGAGAGA: 0.23.
The same measure for TCCCGGCCAGTGCTTGAGA: 0.406; for TCCCGTGGAGTTGGAGAGA: 0.27; for TCCCCTGTAGTAGAAGAGA: 0.263.
As for TCCCTTACAGTGCCGGAGA, the TetR repression strength amounted to 0.221.
The same measure for TCCCGCCGAGTAGGGGAGA: 0.19; for TCCCCGGGAGTTCCTGAGA: 0.0921.
The same measure for TCCCGAGAAGTTCGAGAGA: 0.243; for TCCCGTTAAGTTGAGGAGA: 0.105; for TCCCGCAGAGTTCTCGAGA: 0.0296.
Under TCCCCAAAAGTGGTAGAGA stands 0.238.
Take TCCCAGCGAGTACATGAGA: the TetR repression strength came to 0.512.
Under TCCCCGGAAGTGGCGGAGA stands 0.146; under TCCCGGCTAGTGTGAGAGA, 0.303; under TCCCAACGAGTCGGCGAGA, 0.234.
The same measure for TCCCGGATAGTATGGGAGA: 0.06; for TCCCGTTGAGTCGCGGAGA: 0.256; for TCCCTTGAAGTCTCTGAGA: 0.252.
Under TCCCGCTCAGTCAATGAGA stands 0.447; under TCCCAGTAAGTGCTAGAGA, 0.515.
As for TCCCCTGAAGTTGAAGAGA, the TetR repression strength is 0.269.
The same measure for TCCCAAGTAGTTGTGGAGA: 0.0698; for TCCCAGATAGTTTTTGAGA: 0.311; for TCCCGGAAAGTAACTGAGA: 0.0283.
The same measure for TCCCAGTGAGTGCGCGAGA: 0.286.
The same measure for TCCCCTATAGTCGTGGAGA: 0.284.
As to TCCCTACTAGTCAGGGAGA, the TetR repression strength was 0.14.
Under TCCCGCTCAGTGGTGGAGA stands 0.176.
Under TCCCACGTAGTAGTTGAGA stands 0.254; under TCCCATGTAGTGGGGGAGA, 0.189; under TCCCTAGCAGTGGAAGAGA, 0.457.
The same measure for TCCCAGGCAGTGTTAGAGA: 0.14; for TCCCAAGGAGTTGTGGAGA: 0.302; for TCCCAGAGAGTGCAAGAGA: 0.468.
TCCCAATGAGTTCGTGAGA registered a TetR repression strength of 0.
Under TCCCAATCAGTTCAGGAGA stands 0.288.
The same measure for TCCCACGCAGTAGGCGAGA: 0.253; for TCCCGTGGAGTCGGGGAGA: 0.267; for TCCCTAGTAGTAGGGGAGA: 0.52.
The same measure for TCCCAATAAGTAATAGAGA: 0.525.
With TCCCGTTAAGTCGCGGAGA, the TetR repression strength came to 0.391.
The same measure for TCCCTGTTAGTAGAGGAGA: 0.195; for TCCCTTTAAGTTGTCGAGA: 0.2; for TCCCAGTCAGTTCCTGAGA: 0.0212.
In the case of TCCCTTATAGTAACCGAGA, the TetR repression strength came to 0.194.
Under TCCCGATTAGTTTGAGAGA stands 0.287; under TCCCGGACAGTCGACGAGA, 0.0556; under TCCCACTAAGTTAGCGAGA, 0.271.
The same measure for TCCCTATGAGTAGAGGAGA: 0.118; for TCCCGTTTAGTGTTTGAGA: 0.0592.
Sequence TCCCACAGAGTTAATGAGA displayed a TetR repression strength of 0.19.
Under TCCCTTATAGTGGCTGAGA stands 0.372.
